Variants at the background level are over-represented here.

B1: tRNA (parent)
chain: CUCUCGGUAGCCAAGUUGGUUUAAGGCGCAAGACUUUAAUUUAUCACUACGAAAUCUUGAGAUCGGGCGUUCGACUCGCCCCCGGGAGAUUUUUUCCUCGAGCAA

The series covers variants of B1. The series can be described thus: nonsense suppression (GFP-seq) (ratio to wild type); higher = more function; SUP4oc tRNA, yeast GFP reporter sort-seq. In a few lines:
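Nonsense suppression (GFPSEQ) is the median GFP/RFP ratio of each sorting bin, weighted by the variant's estimated share of cells in that bin and expressed relative to the unmutated parent tRNA. Yeast strains carried genome-integrated variants of an ochre-suppressor tRNA from a library with ~3% random mutations, plus a galactose-driven GFP ochre reporter and RFP, and were grown in raffinose/galactose medium containing 80 mg/L adenine. Cells were sorted into GFP/RFP bins, each bin was Illumina-sequenced (phred ≥30), and variants were kept only with ≥100 reads and ≥30 cells.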
With C5U A24U C27A U57C, the nonsense suppression was no more than 0.026.
Under U8G U71C stands no more than 0.026; under C12U G15C G18U G26A, no more than 0.026; under A9C C11G A30G, no more than 0.026.
C5G U76A: the nonsense suppression is no more than 0.026.
Under C3U A74C G84C stands no more than 0.026; under U2C G19C U35G G78U, no more than 0.026; under C1U C3U G7U U76G G84C, no more than 0.026.
The result for C11U G78U reads no more than 0.026; that for U57C G69A A74G, no more than 0.026.
The result for G7U A62C reads no more than 0.026; that for G18U U63G G66U, no more than 0.026; that for A13C U21G A89U, no more than 0.026.
On to A9C G32U G61U, for which the nonsense suppression was no more than 0.026.
The result for G10C C12A C82G reads no more than 0.026; that for C3G C5U A33U G78A, no more than 0.026; that for G19C, no more than 0.026.
In the case of U4A A74C, the nonsense suppression is no more than 0.026.
Under U16C U57C stands no more than 0.026; under U20A A23G U63C, no more than 0.026.
The result for U2A U4A G7A reads no more than 0.026; that for G66C U71C, no more than 0.026; that for U16A G32A C64G, no more than 0.026.
The result for A24U U57A reads no more than 0.026; that for G28A C29U, 1.15; that for A30U G61C G88A, no more than 0.026.
For G6U G10C G25C, the nonsense suppression is no more than 0.026.
U4C G15A A23G G67A C79G: the nonsense suppression is no more than 0.026.
On to C3U G15C A31U U35A, for which the nonsense suppression was no more than 0.026.
The result for U8G G19U G28U G78A reads no more than 0.026; that for C12G G15U G65A U76G, no more than 0.026.
The result for G6A C64A U71C A87G A89G reads no more than 0.026; that for G10A U63A, no more than 0.026.
Under G18U A24U A62G stands no more than 0.026; under U20A G28A, 0.813.
For the variant C34U G61A, the nonsense suppression was 0.0297.
For C1U A30C G86A, the nonsense suppression is no more than 0.026.
The result for G7C A24U G28C U76G C80G reads no more than 0.026; that for C5U A33G C68U G73C U76A G78C, no more than 0.026; that for U8C C64U, no more than 0.026.
Under A31U U76A stands 0.0413.
Under G6A G61C stands no more than 0.026; under G6C A24C, no more than 0.026; under A31G C34G A54C U57C U63C G65A U70C, no more than 0.026.
Turning to U17A U20G G32A G61A C80U, the nonsense suppression is no more than 0.026.
The result for A24G G25U U35G C64A G88U reads no more than 0.026; that for U4G C72G, 0.0909.
The result for U4G C12A A23C reads no more than 0.026; that for U21C G28U U57C, no more than 0.026; that for A9U C11G U58A G69C, no more than 0.026.
Under G26A C77U stands no more than 0.026.
With A62U A74U U76A G78C, the nonsense suppression was no more than 0.026.
Regarding U22G C34G A60G C75U, the nonsense suppression is no more than 0.026.
Under A9U G19U C27U stands no more than 0.026; under G6C A9G A33C C80U, no more than 0.026.
Under U8G G19U U20A C80A G88C stands no more than 0.026; under C12U A13U C64U G67U G78A G84U, no more than 0.026; under G25A A62G, no more than 0.026.
As to G67C G86C, the nonsense suppression is no more than 0.026.
Under C29U G67A stands no more than 0.026.
On to U17C G88U, for which the nonsense suppression was no more than 0.026.
Under U20A U22A C56G stands no more than 0.026; under C27U C64A C75U, no more than 0.026.
Under U17C G86U stands no more than 0.026; under G26C G78U C82A, no more than 0.026; under G6A G19A A23G A60C G73A G84C, no more than 0.026.
As for G7C U76A, the nonsense suppression is no more than 0.026.
The result for C11A C80A reads no more than 0.026.
The result for C1U A24C A54U U70A G86A reads no more than 0.026; that for U8C U63C C75U G84C, no more than 0.026.
The result for U8A A62U G65C A89U reads no more than 0.026; that for A24U C79U C83G, no more than 0.026.
As to C34U G67C G73U, the nonsense suppression was no more than 0.026.
Turning to G18C A24U U55C, the nonsense suppression is no more than 0.026.
Turning to A9U U22G G25U A33U, the nonsense suppression was no more than 0.026.
Under C3U A9U stands no more than 0.026.
The result for G15A U16G U58G reads no more than 0.026; that for C3U U70C, no more than 0.026; that for C27G G69U, no more than 0.026.
Under C56A G59U G66C stands no more than 0.026.
In the case of A13C A24U G66U, the nonsense suppression is no more than 0.026.
With C1U A23U G28U G61A, the nonsense suppression is no more than 0.026.
The result for U2G U35G U76G reads no more than 0.026; that for U35A G66C, no more than 0.026.
Regarding G18C C72U G84U, the nonsense suppression was no more than 0.026.
For the variant C5G C27U C75U, the nonsense suppression was no more than 0.026.
As for C3U U21C G59C, the nonsense suppression is no more than 0.026.
Under U21A U63G G86A stands no more than 0.026; under C3G U4C A14C U70G, no more than 0.026.
Under U63C A89G stands no more than 0.026.
The result for A30G C56A reads no more than 0.026; that for A33U A74U, no more than 0.026; that for C1G C64A, no more than 0.026.
For the variant G18C G66A, the nonsense suppression is no more than 0.026.
Under G6U A13U G18C U20G stands no more than 0.026.
Under G6A G32A G66A stands no more than 0.026.
The result for U17G U20A A24C G25A U57C G73U A87U reads no more than 0.026.
Consider C64G G85U, for which the nonsense suppression is no more than 0.026.
The result for G7C C64G A74U reads no more than 0.026.
As to U4C A23C G65A C83G, the nonsense suppression was no more than 0.026.
Under U35A G66A C81G G88A stands no more than 0.026; under U21G G84C, no more than 0.026; under C64A G66A U71G, no more than 0.026.
The result for G7C A31G G69U reads no more than 0.026.
The result for U2A C11G C27U U35A reads no more than 0.026; that for C3U U20A G26A, no more than 0.026.
As to U16A U55G U57A, the nonsense suppression was no more than 0.026.
The result for C12U G19A A30C G69A reads no more than 0.026.
As to U4G G32U, the nonsense suppression was no more than 0.026.
As to C3G C77A C83A, the nonsense suppression was no more than 0.026.
The result for U55C A60G C77A C83U reads no more than 0.026; that for C12U U21A A31G, 0.214; that for U16A C56A, no more than 0.026.
Under C27G A31G G61A U76G C81A stands no more than 0.026; under A13U C75U, 1.22.
Under A9U C81A stands no more than 0.026.
With C3U A9C C12G C81A, the nonsense suppression is no more than 0.026.
Under A33U U55G stands 0.167.
Under C12U G67A stands no more than 0.026; under U17A A74G G86A, no more than 0.026; under U57C G85A, 0.757.
The result for G7C C29G reads no more than 0.026.
Regarding A33G U70C, the nonsense suppression was no more than 0.026.
On to G19A A30G, for which the nonsense suppression is no more than 0.026.
For C11G G25U C27G, the nonsense suppression was no more than 0.026.
The result for U55C C56G U58C reads no more than 0.026; that for U8A G25A, no more than 0.026.
Under G61U C75U G85A stands 1.04; under G18C G28C C29G, no more than 0.026.
The result for U17A G18U A23U G78A reads no more than 0.026.
For U16C A24C A31C G32U G67A C79G, the nonsense suppression was no more than 0.026.
The result for U21A G65C G85U reads no more than 0.026; that for C34U U58G G61C, no more than 0.026; that for A9G U17A, 0.92.
Under C27U A31U stands 0.0324.
The result for C3A G10C C12G reads no more than 0.026.
Regarding C12U A33U C56A U63A, the nonsense suppression was no more than 0.026.
Under A13U A31U A33G stands no more than 0.026; under U8A A13G, no more than 0.026.
The result for C27G U55G reads no more than 0.026; that for C5U G6C A62C, no more than 0.026; that for C3A A9G A31C A60U C68U C82G, no more than 0.026.
Under U4G C34A G69A G86C stands no more than 0.026; under C5A C81A, no more than 0.026.
Turning to U2G G65C, the nonsense suppression was no more than 0.026.
The result for U21A U57C reads no more than 0.026; that for U20G G78C G85C, no more than 0.026.
Under C1G C3U U16G G65A stands no more than 0.026.
Under U16A G19C U70G C72G stands no more than 0.026; under G15A A54U U55G U57G U58G, no more than 0.026.
As to C12U G67C U70A, the nonsense suppression is no more than 0.026.
For U16G C82A A87C, the nonsense suppression was no more than 0.026.
The result for A24G G25U reads no more than 0.026; that for C5A C29G C75G, no more than 0.026.
The result for A14C U22G A23G G67C reads no more than 0.026.
The result for A23C G84A reads no more than 0.026; that for U55C G73C U76C, no more than 0.026; that for A62G C72U G84C G88U A89U, no more than 0.026.
For C3A A23G, the nonsense suppression was no more than 0.026.
Consider A13U G84C, for which the nonsense suppression was no more than 0.026.
For the variant G26U G32U, the nonsense suppression was no more than 0.026.
On to G18A G61C C72U, for which the nonsense suppression is no more than 0.026.
Under G10C C34G stands no more than 0.026; under U2C C11A, no more than 0.026.
The result for C29U U63C G85A reads 0.849.
Regarding U57C G84A, the nonsense suppression was no more than 0.026.
The result for A23C G28C C56G A62G reads no more than 0.026.

The values are drawn from the RNAGym collection of RNA variant scans (doi:10.1101/gad.245936.114).
